Assay results taken from patent US12643954B2, “Anti-CD36 antibodies and their use to treat cancer” (ONA Therapeutics, S.L., priority 2020, dated 2026).

Key:
CD36 = CD36 (Homo sapiens, UniProt P16671); assay: ELISA binding to plate-coated human CD36; set-up: purchased Sino Biological 10752-H08H; details: recombinant human CD36 coated plates
Experimental: To perform ELISA assays, 96-well ELISA plates were coated over night with human CD36 (Sino Biological, reference 10752-H08H) or mouse CD36 (Sino Biological, reference 50422-M08H) recombinant proteins at a concentration of 0.25 mg/ml. After two washes with PBS, plates were blocked with 4% skimmed milk in PBS for 1 hour at 37° C. Blocking solution was discarded and plates were washed five times with 200 μl/well PBS-Tween20 (0.5%). Primary antibodies were either omitted (control blocking solution treatment) or mixed in blocking solution at several dilutions ranging from 0.01 nM to 0.5 μM. The primary antibody solutions were added to the wells and incubated over night at 4° C. After 5 washes with 200 ul/well of PBS-Tween20 (0.5%), plates were incubated for 1 hour at room temperature with a goat anti-mouse HRP-conjugated antibody (Abeam, reference ab97235) diluted 1:2000 in blocking solution. Plates were then washed 5 times with 200 μl/well of PBS-Tween20 (0.5%), incubated with 100 μl/well TMB and detected after 10 minutes, 30 minutes, or 60 minutes with a spectrophotometer at a wave length of 630 nm.

HCT-116 cells = assay: HCT-116 orthotopic mouse model of colon cancer (Example 10); assay type: in vivo
Experimental: Studies of the effects of the 1G04 anti-CD36 antibody on colon cancer were performed in BALB/c nude mice (immuno-deficient). The studies included only female mice. All mice were inoculated with commercially available HCT-116 (ATCC) cancer cells, transduced with a retroviral vector expressing luciferase. HCT-116 cells were derived from a human colorectal carcinoma (i.e., from a colon cancer). Prior to inoculation, the HCT-116 cells were cultured in a humidified incubator at 37° C. with 5% CO2, and were grown in McCoy's 5A medium supplemented with 5 μg ml^−1 penicillin/streptomycin and 10% FBS (GIBCO).
For each mouse, 2×10^6 HCT-116 cells were inoculated via orthotopic injection. Each mouse was imaged after inoculation and one week later and liver metastasis were confirmed by ex vivo luminescence prior to start of treatment. Treatment began 12 days after inoculation with the HCT-116 cells. Inoculated mice were divided into one of two treatment groups: vehicle injection control (n=10) or 1G04 treatment (n=10). Antibody treatments were administered via intraperitoneal (i.p.) injection at a dose of 10 mg/kg three times per week, while control mice received an equal volume of vehicle on the same schedule. One day prior to the start of treatment, and at 7, 14, and 21 days after the start of treatment, all mice were imaged via IVIS. Mice were sacrificed at the end of the treatment period (day 25). Upon sacrifice, organs and tissues were collected for performance of necropsy, ex-vivo IVIS, and histopathology.

[1] = 10 mg/kg i.p. three times per week

Sequence of UniProt P16671 (P16671 30-439 limits assumed): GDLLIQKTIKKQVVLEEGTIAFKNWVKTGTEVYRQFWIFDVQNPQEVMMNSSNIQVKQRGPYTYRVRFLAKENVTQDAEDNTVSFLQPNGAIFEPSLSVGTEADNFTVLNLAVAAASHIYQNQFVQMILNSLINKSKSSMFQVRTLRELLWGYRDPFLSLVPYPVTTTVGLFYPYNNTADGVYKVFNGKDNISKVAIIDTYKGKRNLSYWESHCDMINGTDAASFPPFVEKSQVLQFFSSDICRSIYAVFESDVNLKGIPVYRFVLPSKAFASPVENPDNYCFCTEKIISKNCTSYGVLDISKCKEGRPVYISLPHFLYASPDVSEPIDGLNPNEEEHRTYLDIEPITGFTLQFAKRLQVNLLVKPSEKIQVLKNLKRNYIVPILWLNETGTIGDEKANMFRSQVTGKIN

B1: 1G04: chimeric ONA-0-v1 IgG1 LALA antibody; heavy chain SEQ ID NO: 21, light chain SEQ ID NO: 23 (antibody)
heavy: QVQLKQSGADLVRPGASVKLSCKASGYTFTDYYINWVKQRPGQGLEWIARIYPGSGNTYYNEKFKGKATLTAEKSSSTAYMQLSSLTSEDSAVYFCARGIGGGFGMDYWGQGTSVTVSS[skipping human IgG1 constant region with changes]
light: SIVMTQTPKFLLVSAGDRITITCKASQSVSDDVAWYQQKPGQSPKLLIYYASNRYTGVPDRFTGSGYGTDFTFTISTVQAEDLAVYFCQQDYSSPLTFGAGTKLEIKRTVAAPSVFIFPPSDEQLKSGTASVVCLLNNFYPREAKVQWKVDNALQSGNSQESVTEQDSKDSTYSLSSTLTLSKADYEKHKVYACEVTHQGLSSPVTKSFNRGEC
modifications: 1G04 heavy chain; 1G04 light chain; 1G06 light chain
B1 was tested, and the “binding to human CD36 in ELISA” value (CD36) was “specifically bound”, the “body weight during course of treatment” value (HCT-116 cells; [1]) was “better able to maintain weight” and the “whole-animal bioluminescence over time” value (HCT-116 cells; [1]) was “decreased whole animal luminescence”. The “mean ex vivo luminescence, lung” value (HCT-116 cells; IVIS at sacrifice) was 1.68*10^6.
